# Measurements as given in PubChem BioAssay AID686979 (National Center for Advancing Translational Sciences (NCATS), 2013).
# “And” between values parts separate entries of the source, which are not always exact repeats. Identical values can stand only once. About 50,000 (12%) of roughly 420,000 compounds were called active. The inconclusive results got no clear call from the source; some entries with a clear call stand among them for comparison. Calls follow the shape of the dose curve; as a rule, active = well fitted inhibition curve with a large enough effect; inconclusive = small, poorly fitted or top-dose-only effect; inactive = flat fitted curve, though single readings scatter. Potencies of inconclusive entries are doubtful fits and often do not repeat.
# Assay: qHTS for Inhibitors of human tyrosyl-DNA phosphodiesterase 1 (TDP1): qHTS in cells in presence of CPT; also: nearly all actives have a fitted effect of over 55% in size
# Conditions: chicken DT40 Tdp1-/-;hTDP1 cells + 20 nM CPT, ATP luminescence, 48 h; activity change, negative = growth inhibition: at 46.2 µM (top of the series) unless noted
# Method in brief: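 Chicken DT40 Tdp1-/- cells stably complemented with human TDP1 were seeded at 400 cells/well in medium containing 20 nM camptothecin, exposed to pin-transferred compounds, and grown at 37 °C for at least 48 hr. Viability was read as ATP luminescence.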
# % is scaled to controls: 0 for no effect and ±100 for the full control effect; potency is read from the fitted curve at half-maximal effect; tags tell the direction and shape of the fitted curve.
Compound,Potency,"activity change, negative = growth inhibition"
Cc1ccc(-c2[nH]c3ccccc3c2SCCN)cc1,"inconclusive: 29.1 µM [inhibitor, single point]",–
Cc1ccc(C2=NC(C(F)(F)F)(C(F)(F)F)c3c(n(-c4ccc(F)cc4)c(=O)[nH]c3=O)N2)cc1,active: 23.1 µM,–
CCN(CC)c1ccc(C=C(c2nnnn2-c2ccccc2)c2nnnn2-c2ccccc2)cc1,"inconclusive: 20.6 µM [inhibitor, partial curve, poor fit]",–
CC(C)N(C(=O)Cn1cc(SCC(=O)NCc2ccco2)c2ccccc21)C(C)C,"inconclusive: 16.4 µM [inhibitor, single point]",–
COCCn1c(SCC(=O)Nc2ccc3c(c2)CCC3)nc2ccccc2c1=O,"inconclusive: 32.6 µM [inhibitor, single point]",–
COCCN(C(=O)CSc1nc(N)cc(=O)[nH]1)c1c(N)n(Cc2ccccc2)c(=O)[nH]c1=O,–,inactive: 16.3%
CCOC(=O)C1=C[C@@H](C(C)(C)C)N(S(=O)(=O)c2ccc([N+](=O)[O-])cc2)[C@H]1c1ccccc1,"inconclusive: 20.6 µM [inhibitor, single point]",–
COCc1c(C(=O)NCC2COc3ccccc3O2)oc2ccccc12 (stereo unspecified),"inconclusive: 29.1 µM [inhibitor, single point]",–
COc1ccc(-c2nn(-c3ccccc3C)cc2CNCCc2cnc[nH]2)cc1F,"inconclusive: 29.1 µM [inhibitor, single point]",–
COc1ccc(NC(=O)CN(C)C(=O)/C=C/c2cn(-c3ccccc3)nc2-c2cccs2)cc1,"inconclusive: 29.1 µM [inhibitor, single point]",–
COc1cccc(Cn2c(=O)n(-c3cccc(Cl)c3C)c(=O)c3c4c(sc32)CN(C(C)=O)CC4)c1,"inconclusive: 29.1 µM [inhibitor, single point]",–
Cc1ccc(S(=O)(=O)NC2c3cccc4cccc(c34)C2Sc2ncccn2)cc1 (stereo unspecified),"inconclusive: 29.1 µM [inhibitor, single point]",–
Cc1ccc(C(=O)NNC(=O)c2ccc(S(=O)(=O)N3CCCCC3)cc2)cc1,active: 5.17 µM,–
CCOC(=O)c1c(C)[nH]c(C)c1S(=O)(=O)N(C)Cc1ccco1,–,inactive: -6.53%
CCN(C(=O)CSc1ncccn1)c1c(N)n(Cc2ccccc2)c(=O)[nH]c1=O,–,inactive: -1.8%
COc1cc(/C=N/OCC(=O)Nc2ccc(OC(F)F)cc2)ccc1OCc1ccccc1,"inconclusive: 29.1 µM [inhibitor, single point]",–
CCOc1ccc(-n2c(=O)c3c4c(sc3n(Cc3cccc(Cl)c3)c2=O)CCCC4)cc1,–,inactive: -17.4%
CCOC(=O)N1C(=O)C[C@](Sc2ccc(C)cc2)(C(=O)OC)[C@H]1c1ccccc1,–,inconclusive: -33% [inhibitor]
O=C(CCCC(=O)Nc1cccc(Br)c1)N/N=C/c1cc([N+](=O)[O-])ccc1O,active: 5.8 µM,–
O=C(NCc1cccc(C(F)(F)F)c1)c1ccc(=O)[nH]c1,–,inactive: 6.63%
CC(=O)c1c(C)[nH]c(C(=O)COC(=O)CN2C(=O)C3CCCCC3C2=O)c1C (stereo unspecified),"inconclusive: 25.9 µM [inhibitor, single point]",–
CCN(C(=O)c1cnc(NC(C)C)cc1C(F)(F)F)c1ccc(Cl)cc1Cl,active: 8.2 µM,–
O=C(Nc1ccccc1)/C(=C\c1ccc(F)cc1)NC(=O)c1ccco1,–,inactive: 4.46%
Cc1nc2c(=O)[nH]c(=S)n(C)c2nc1C,"inconclusive: 29.1 µM [inhibitor, single point]",–

Compound,Potency,"activity change, negative = growth inhibition"
CCOc1cccc(/C=N/NC(=O)c2cccnc2)c1O,"inconclusive: 20.6 µM [inhibitor, single point]",–
O=c1c2ccccc2nc2n1-c1ccccc1CCC2,"inconclusive: 29.1 µM [inhibitor, single point]",–
Cc1ccc(NC(=O)Cn2c(=O)n(-c3ccc(CC(=O)NCC4CCCO4)cc3)c(=O)c3ccccc32)cc1 (stereo unspecified),–,inactive: 4.62%
COc1ccc(C2=CC(c3ccc(C)cc3)n3nnnc3N2)cc1 (stereo unspecified),–,inconclusive: -39.7% [inhibitor]
Cc1ccc(Cl)cc1N1CCN(C(=O)CN(C2CCCCC2)S(C)(=O)=O)CC1,active: 14.6 µM,–
Cc1ccc(S(=O)(=O)N2CCC(C(=O)N3CCCCCCC3)CC2)cc1C,active: 16.4 µM,–
COc1ccc(-n2cc(-c3ccc(OC(F)F)cc3)[n+]3c2CCCCC3)cc1,active: 1.3 µM,–
CC1SCC(=O)N(CC(=O)NC2CCCCC2)C1=O (stereo unspecified),–,inactive: -2.59%
CCCCCC(C)NC(=O)CN1C(=O)NC(C)(c2ccc3ccccc3c2)C1=O (stereo unspecified),"inconclusive: 10.3 µM [inhibitor, partial curve]",–
O=c1[nH]c(C2CCN(S(=O)(=O)c3ccccc3F)CC2)nc2c1nnn2Cc1ccc(OC(F)(F)F)cc1,"inconclusive: 29.1 µM [inhibitor, single point]",–
CCN(CC)C(=O)COc1ccc(/C=C(\C#N)S(=O)(=O)c2ccccc2)cc1OC,–,inactive: 0.838%
Cc1cc(N(C)C)cc(C)c1/C=C/c1cc[n+](C)c2ccccc12,active: 0.562 µM,–
CCOC(=O)c1[nH]c(C)c(C(=O)Nc2ccccc2C)c1C,active: 1.64 µM,–
Cc1cc(C)c2c(c1)[C@@H]1C=CC[C@@H]1[C@H](c1ccc(S(=O)(=O)N3CCOCC3)cc1)N2,active: 16.4 µM,–
CCC(C)NC(=O)C(Cc1ccccc1)NS(=O)(=O)c1cccc2nsnc12 (stereo unspecified),–,inactive: -0.756%
CCCCN1CC(c2nc3ccccc3n2CCCCOc2c(C)cccc2C)CC1=O (stereo unspecified),active: 11.6 µM,–
CCN(C(=O)CN1C(=O)/C(=C/c2ccc(F)cc2)SC1=S)C1CCS(=O)(=O)C1 (stereo unspecified),"inconclusive: 20.6 µM [inhibitor, single point]",–
CCOC(=O)N1CCN(c2ncnc3c2[nH]c2ccc(OC)cc23)CC1,"inconclusive: 18.4 µM [inhibitor, single point]",–
COc1ccc([N+](=O)[O-])cc1Nc1c2ccccc2nc2ccccc12,active: 2.59 µM,–
CCCC(=O)N(c1ccc2oc(-c3ccccc3)c(C(=O)OCC)c2c1)S(=O)(=O)c1ccc(C)cc1,"inconclusive: 23.1 µM [inhibitor, single point]",–
Cc1ccccc1Oc1ccc(NC(=O)C2CC=CCC2C(=O)O)cc1 (stereo unspecified),active: 14.6 µM,–
COc1ccc(C)cc1NC(=O)CN1CCN(c2ccc(F)cc2)CC1,active: 20.6 µM,–
CCc1nc2c(OCc3ccccc3)cccn2c1N(C)C(=O)Nc1ccccc1OC,"inconclusive: 32.6 µM [inhibitor, single point]",–
COc1ccc(Cl)cc1NC(=O)CN1CCc2ccccc2C1,–,inactive: -29.6%

Compound,Potency,"activity change, negative = growth inhibition"
CN1CCN(c2ccc(CNC(=O)c3ccc(-c4cnn(C)c4)c4ccoc34)cc2)CC1,"inconclusive: 29.1 µM [inhibitor, single point]",–
O=C1Nc2ccccc2/C1=C/c1cccnc1,"inconclusive: 29.1 µM [inhibitor, single point]",–
Cc1ccc(S(=O)(=O)NCC(=O)NNC(=O)c2ccccc2Cl)cc1C,–,inactive: 2.22%
Cc1cccc(C(=O)Nc2ccccc2-c2nc(-c3ccccc3)no2)c1,–,inactive: -17.3%
NS(=O)(=O)c1cccc(NC(=O)Nc2ccccc2)c1,–,inactive: 15.5%
CN(C)CCOCCOc1ccc(Cl)cc1Br,"inconclusive: 29.1 µM [inhibitor, single point]",–
O=C(Nc1ccccc1)Nc1cccc2nsnc12,"inconclusive: 8.2 µM [inhibitor, partial curve]",–
O=C1c2[nH]nc(-c3ccccc3O)c2C(c2cccc(Cl)c2)N1CC1CCCO1 (stereo unspecified),"inconclusive: 29.1 µM [inhibitor, single point]",–
O=C(NCCC1=CCCCC1)Nc1ccc2nsnc2c1,"inconclusive: 10.3 µM [inhibitor, single point]",–
CCCOc1ccccc1C(=O)Nc1ccc(S(=O)(=O)N2CCN(C)CC2)cc1,active: 18.4 µM,–
CC(C)CN(c1ccccc1)S(=O)(=O)c1nnc(NC(=O)c2ccco2)s1,"inactive and inconclusive: 29.1 µM [inhibitor, single point]",–
CCn1c(=NC(=O)CSC(C)=O)sc2cc(F)ccc21,"inconclusive: 29.1 µM [inhibitor, single point]",–
Cc1ccc(N(CC(=O)NCCSCc2ccco2)S(=O)(=O)c2ccc(F)cc2)cc1,active: 25.9 µM,–
COc1ccc(N2CCN(C(=O)c3ccc(NS(=O)(=O)c4ccc(F)c(F)c4)cc3)CC2)cc1,"inconclusive: 11.6 µM [inhibitor, single point]",–
O=[N+]([O-])c1ccc(N2CCN(c3ccccc3Cl)CC2)cn1,active: 18.4 µM,–
Cc1nc2ccc(Cc3ccc4nc(C)[nH]c4c3)cc2[nH]1,active: 25.9 µM,–
Cc1cccc(OCC(=O)N2CCc3ccccc3C2)c1C,"inconclusive: 29.1 µM [inhibitor, single point]",–
COCCN1CCc2[nH]c(=S)[nH]c(=O)c2C1,"inconclusive: 25.9 µM [inhibitor, single point]",–
O=C(CSc1ncn(-c2ccccc2)n1)Nc1nc(-c2ccccc2)cs1,"inconclusive: 16.4 µM [inhibitor, single point]",–
CCC(=O)N(NC1=NS(=O)(=O)c2ccccc21)S(=O)(=O)c1ccc(C)cc1,–,inactive: 5.22%
CCC(C)NCCC(=O)Nc1ccc(Cl)c(S(=O)(=O)Nc2ccc(Cl)cc2)c1 (stereo unspecified),"inconclusive: 18.4 µM [inhibitor, single point]",–
O=C(CCSCc1ccccc1F)N1CCN(c2ccc(F)cc2)CC1,"inconclusive: 29.1 µM [inhibitor, single point]",–
COc1ccc(OCC(=O)Nc2ccc(N3CCN(C(=O)c4ccccc4)CC3)c(Cl)c2)cc1,"inconclusive: 18.4 µM [inhibitor, single point]",–
